Data: the supplement of paper PMC4967469
By IC50 is meant the dose at which the fit gives 50% viability; a fit beyond the top or the lowest dose is shown as a bound at that dose. AUC, from the same fit, is the share of area under the viability curve across the 256-fold dose range; the more sensitive the line, the further below 1. A top dose marked as inferred was derived from the fitted curves, not read from the paper.

Compound: O=C1NC(=NCc2cccs2)S/C1=C\c1ccc2ncccc2c1 [RO-3306]
Experiment: Viability of human cancer cell lines after 72 h of drug (GDSC screen)
Details: top dose 5 µM; top dose inferred
Protocol: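 Human cancer cell lines in 384-well plates, medium with 10% serum, drug for 72 h over a 256-fold dose range (nine 2-fold or five 4-fold steps up to the top dose). Adherent lines were fixed and stained with the nucleic acid dye Syto60, suspension lines read with resazurin; signal relative to control wells, capped at 0 and 100%. One two-parameter sigmoid per drug and line, fitted in a mixed model over all curves with the slope shared within a line.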

Row | Cell Line | AUC | IC50 [µM]
1 | ESO26 (oesophagus, adherent) | 0.989 | > 5
2 | ESO51 (oesophagus, semi-adherent) | 0.978 | > 5
3 | ESS-1 (endometrium, adherent) | 0.973 | > 5
4 | ETK-1 (biliary tract, adherent) | 0.971 | > 5
5 | EVSA-T (breast, adherent) | 0.855 | 3.12
6 | EW-1 (Ewing sarcoma, semi-adherent) | 0.976 | > 5
7 | EW-3 (Ewing sarcoma, adherent) | 0.961 | > 5
8 | EW-7 (Ewing sarcoma, semi-adherent) | 0.99 | > 5
9 | EW-11 (Ewing sarcoma, adherent) | 0.981 | > 5
10 | EW-13 (Ewing sarcoma, suspension) | 0.986 | > 5
11 | EW-16 (Ewing sarcoma, adherent) | 0.967 | > 5
12 | EW-18 (Ewing sarcoma, suspension) | 0.978 | > 5
13 | EW-22 (Ewing sarcoma, adherent) | 0.984 | > 5
14 | EW-24 (Ewing sarcoma, semi-adherent) | 0.992 | > 5
15 | EoL-1-cell (haematopoietic neoplasm, suspension) | 0.987 | > 5
16 | FADU (head and neck, adherent) | 0.914 | > 5
17 | FLO-1 (oesophagus, adherent) | 0.916 | > 5
18 | FTC-133 (thyroid, adherent) | 0.983 | > 5
19 | FU97 (stomach, adherent) | 0.986 | > 5
20 | FU-OV-1 (ovary, adherent) | 0.955 | > 5
21 | Farage (B-cell lymphoma, suspension) | 0.984 | > 5

Row | Cell Line | AUC | IC50 [µM]
22 | G-292 Clone A141B1 (osteosarcoma, adherent) | 0.976 | > 5
23 | G-361 (melanoma, adherent) | 0.988 | > 5
24 | G-401 (kidney, adherent) | 0.968 | > 5
25 | G-402 (soft tissue, adherent) | 0.964 | > 5
26 | GA-10 (Burkitt lymphoma, suspension) | 0.975 | > 5
27 | GAK (melanoma, adherent) | 0.986 | > 5
28 | GAMG (glioma, adherent) | 0.858 | 4.44
29 | GB-1 (glioma, adherent) | 0.91 | > 5
30 | GCIY (stomach, adherent) | 0.98 | > 5
31 | GDM-1 (acute myeloid leukaemia, suspension) | 0.987 | > 5
32 | GI-1 (glioma, adherent) | 0.987 | > 5
33 | GI-ME-N (neuroblastoma, adherent) | 0.88 | > 5
34 | GMS-10 (glioma, adherent) | 0.971 | > 5
35 | GOTO (neuroblastoma, adherent) | 0.944 | > 5
36 | GR-ST (lymphoblastic leukaemia, suspension) | 0.937 | > 5
37 | GRANTA-519 (B-cell lymphoma, suspension) | 0.988 | > 5
38 | GT3TKB (stomach, adherent) | 0.953 | > 5
39 | H4 (glioma, adherent) | 0.717 | 1.27
40 | H9 (lymphoid neoplasm, suspension) | 0.991 | > 5
41 | H290 (mesothelioma, adherent) | 0.984 | > 5
42 | H2369 (mesothelioma, adherent) | 0.911 | > 5

Row | Cell Line | AUC | IC50 [µM]
43 | H2373 (mesothelioma, adherent) | 0.959 | > 5
44 | H2461 (mesothelioma, adherent) | 0.945 | > 5
45 | H2591 (mesothelioma, adherent) | 0.977 | > 5
46 | H2595 (mesothelioma, adherent) | 0.823 | 4.65
47 | H2731 (mesothelioma, adherent) | 0.896 | > 5
48 | H2795 (mesothelioma, adherent) | 0.969 | > 5
49 | H2869 (mesothelioma, adherent) | 0.967 | > 5
50 | H3118 (head and neck, adherent) | 0.794 | 2.54
51 | H3255 (lung adenocarcinoma, adherent) | 0.97 | > 5
52 | H-EMC-SS (chondrosarcoma, adherent) | 0.841 | > 5
53 | HA7-RCC (kidney, adherent) | 0.936 | > 5
54 | HAL-01 (lymphoblastic leukaemia, suspension) | 0.958 | > 5
55 | HARA (lung squamous cell carcinoma, adherent) | 0.954 | > 5
56 | HC-1 (hairy cell leukaemia, suspension) | 0.974 | > 5
57 | HCC38 (breast, adherent) | 0.943 | > 5
58 | HCC202 (breast, adherent) | 0.98 | > 5
59 | HCC1143 (breast, adherent) | 0.978 | > 5
60 | HCC1187 (breast, suspension) | 0.985 | > 5
61 | HCC1395 (breast, adherent) | 0.901 | > 5
62 | HCC1419 (breast, adherent) | 0.922 | > 5
63 | HCC1428 (breast, adherent) | 0.934 | > 5

Row | Cell Line | AUC | IC50 [µM]
64 | HCC1500 (breast, adherent) | 0.988 | > 5
65 | HCC1569 (breast, adherent) | 0.97 | > 5
66 | HCC1806 (breast, adherent) | 0.972 | > 5
67 | HCC1937 (breast, adherent) | 0.965 | > 5
68 | HCC1954 (breast, adherent) | 0.954 | > 5
69 | HCC2157 (breast, suspension) | 0.977 | > 5
70 | HCC2218 (breast, suspension) | 0.982 | > 5
71 | HCC-15 (lung squamous cell carcinoma, adherent) | 0.857 | > 5
72 | HCC-44 (lung adenocarcinoma, adherent) | 0.973 | > 5
73 | HCC-56 (large intestine, adherent) | 0.983 | > 5
74 | HCC-78 (lung adenocarcinoma, adherent) | 0.966 | > 5
75 | HCC-366 (non-small cell lung carcinoma, adherent) | 0.975 | > 5
76 | HCC-827 (lung adenocarcinoma, adherent) | 0.952 | > 5
77 | HCT-15 (large intestine, adherent) | 0.948 | > 5
78 | HD-MY-Z (Hodgkin lymphoma, adherent) | 0.908 | > 5
79 | HDLM-2 (Hodgkin lymphoma, suspension) | 0.964 | > 5
80 | HDQ-P1 (breast, adherent) | 0.984 | > 5
81 | HEC-1 (endometrium, adherent) | 0.979 | > 5
